# Measured values reported in the supplement of paper PMC8728848.
# This is one part of the list.
# B1: Als3-N (Candida albicans) (protein)
# chain: KTITGVFNSFNSLTWSNAATYNYKGPGTPTWNAVLGWSLDGTSASPGDTFTLNMPCVFKFTTSQTSVDLTAHGVKYATCQFQAGEEFMTFSTLTCTVSNTLTPSIKALGTVTLPLAFNVGGTGSSVDLEDSKCFTAGTNTVTFNDGGKKISINVDFERSNVDPKGYLTDSRVIPSLNKVSTLFVAPQCANGYTSGTMGFANTYGDVQIDCSNIHVGITKGLNDWNYPVSSESFSYTKTCSSNGIFITYKNVPAGYRPFVDAYISATDVNSYTLSYANEYTCAGGYWQRAPFTLRWTGYRNSDAGSNGIVIVATTRTVTDSTTAVTTLPFDPNRDKTKTIEILKPIPTTTITTSYVGVTTSYLTKTAPIGETATVIVDIPYHTTTTVTSKWTGTITSTTTHTNPTDSIDTVIVQVP
# Assays:
# Assay in all cases: glycan array binding signal (z-score within array); higher = stronger binding
# Conditions in all cases: glycan notation: IUPAC condensed, linker removed
# [1] = biological target: Gal(b1-3)GalNAc(b1-3)Gal
# How it was run: (§1)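 Glycan array binding is given as a within-array Z-score, which can be read as non-binding when negative. The arrays, 3228 of them, came from the Consortium for Functional Glycomics database and were retained only where the protein sequence was available. Z-scores were averaged across arrays of the same protein sequence at different concentrations or buffers and across linkers.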
# [2] = biological target: Gal(b1-3)GalNAc(b1-3)Gal(a1-4)Gal(b1-4)Glc
# How it was run: as §1
# [3] = biological target: Gal(b1-3)GalNAc(b1-4)Gal(b1-4)Glc
# How it was run: as §1
# [4] = biological target: Gal(b1-3)GalNAc(b1-4)[Neu5Ac(a2-3)]Gal(b1-4)Glc
# How it was run: as §1
# [5] = biological target: Gal(b1-3)GlcNAc
# How it was run: as §1
# [6] = biological target: Gal(b1-3)GlcNAc(a1-3)Gal(b1-4)GlcNAc
# How it was run: as §1
# [7] = biological target: Gal(b1-3)GlcNAc(a1-6)Gal(b1-4)GlcNAc
# How it was run: as §1
# [8] = biological target: Gal(b1-3)GlcNAc(b1-2)Man
# How it was run: as §1
# [9] = biological target: Gal(b1-3)GlcNAc(b1-2)Man(a1-3)[Gal(b1-3)GlcNAc(b1-2)Man(a1-6)]Man(b1-4)GlcNAc(b1-4)GlcNAc
# How it was run: as §1
# [10] = biological target: Gal(b1-3)GlcNAc(b1-2)Man(a1-3)[Gal(b1-3)GlcNAc(b1-2)Man(a1-6)]Man(b1-4)GlcNAc(b1-4)[Fuc(a1-6)]GlcNAc
# How it was run: as §1
# [11] = biological target: Gal(b1-3)GlcNAc(b1-2)Man(a1-3)[GlcNAc(b1-4)][Gal(b1-3)GlcNAc(b1-2)Man(a1-6)]Man(b1-4)GlcNAc(b1-4)GlcNAc
# How it was run: as §1
# [12] = biological target: Gal(b1-3)GlcNAc(b1-2)[Gal(b1-3)GlcNAc(b1-6)]Man(a1-6)[Gal(b1-3)GlcNAc(b1-2)Man(a1-3)]Man(b1-4)GlcNAc(b1-4)GlcNAc
# How it was run: as §1
# [13] = biological target: Gal(b1-3)GlcNAc(b1-3)Gal(b1-3)GlcNAc
# How it was run: as §1
# [14] = biological target: Gal(b1-3)GlcNAc(b1-3)Gal(b1-4)Glc
# How it was run: as §1
# [15] = biological target: Gal(b1-3)GlcNAc(b1-3)Gal(b1-4)GlcNAc
# How it was run: as §1
# [16] = biological target: Gal(b1-3)GlcNAc(b1-3)Gal(b1-4)GlcNAc(b1-2)Man(a1-3)[Gal(b1-3)GlcNAc(b1-3)Gal(b1-4)GlcNAc(b1-2)Man(a1-6)]Man(b1-4)GlcNAc(b1-4)GlcNAc
# How it was run: as §1
# [17] = biological target: Gal(b1-3)GlcNAc(b1-3)Gal(b1-4)GlcNAc(b1-2)[Gal(b1-3)GlcNAc(b1-3)Gal(b1-4)GlcNAc(b1-6)]Man(a1-6)[Gal(b1-3)GlcNAc(b1-3)Gal(b1-4)GlcNAc(b1-2)Man(a1-3)]Man(b1-4)GlcNAc(b1-4)[Fuc(a1-6)]GlcNAc
# How it was run: as §1
# [18] = biological target: Gal(b1-3)GlcNAc(b1-3)Gal(b1-4)GlcNAc(b1-3)Gal(b1-4)GlcNAc(b1-2)[Gal(b1-3)GlcNAc(b1-3)Gal(b1-4)GlcNAc(b1-3)Gal(b1-4)GlcNAc(b1-6)]Man(a1-6)[Gal(b1-3)GlcNAc(b1-3)Gal(b1-4)GlcNAc(b1-3)Gal(b1-4)GlcNAc(b1-2)Man(a1-3)]Man(b1-4)GlcNAc(b1-4)[Fuc(a1-6)]GlcNAc
# How it was run: as §1
# [19] = biological target: Gal(b1-3)GlcNAc(b1-3)Gal(b1-4)GlcNAc(b1-6)[Gal(b1-3)GlcNAc(b1-3)]Gal(b1-4)Glc
# How it was run: as §1
# [20] = biological target: Gal(b1-3)GlcNAc(b1-3)Gal(b1-4)[Fuc(a1-3)]GlcNAc
# How it was run: as §1
# [21] = biological target: Gal(b1-3)GlcNAc(b1-3)Gal(b1-4)[Fuc(a1-3)]GlcNAc(b1-6)[Gal(b1-3)GlcNAc(b1-3)]Gal(b1-4)Glc
# How it was run: as §1
# [22] = biological target: Gal(b1-3)GlcNAc(b1-3)GalNAc
# How it was run: as §1
# [23] = biological target: Gal(b1-3)GlcNAc(b1-6)Gal(b1-4)GlcNAc
# How it was run: as §1
# [24] = biological target: Gal(b1-3)GlcNAc(b1-6)GalNAc
# How it was run: as §1
# [25] = biological target: Gal(b1-3)GlcNAc(b1-6)[Gal(b1-3)]GalNAc
# How it was run: as §1
# [26] = biological target: Gal(b1-3)GlcNAc6S
# How it was run: as §1
# [27] = biological target: Gal(b1-3)[Fuc(a1-4)]GlcNAc
# How it was run: as §1
# [28] = biological target: Gal(b1-3)[Fuc(a1-4)]GlcNAc(b1-2)Man
# How it was run: as §1
# [29] = biological target: Gal(b1-3)[Fuc(a1-4)]GlcNAc(b1-2)Man(a1-3)[Gal(b1-3)[Fuc(a1-4)]GlcNAc(b1-2)Man(a1-6)]Man(b1-4)GlcNAc(b1-4)[Fuc(a1-6)]GlcNAc
# How it was run: as §1
# [30] = biological target: Gal(b1-3)[Fuc(a1-4)]GlcNAc(b1-3)Gal(b1-3)[Fuc(a1-4)]GlcNAc
# How it was run: as §1
# [31] = biological target: Gal(b1-3)[Fuc(a1-4)]GlcNAc(b1-3)Gal(b1-4)[Fuc(a1-3)]GlcNAc
# How it was run: as §1
# [32] = biological target: Gal(b1-3)[Fuc(a1-4)]GlcNAc(b1-6)GalNAc
# How it was run: as §1
# [33] = biological target: Gal(b1-3)[GlcNAc(b1-6)]GalNAc
# How it was run: as §1
# [34] = biological target: Gal(b1-3)[Neu5Ac(a2-6)]GalNAc
# How it was run: as §1
# [35] = biological target: Gal(b1-3)[Neu5Ac(a2-6)]GlcNAc(b1-4)Gal(b1-4)Glc
# How it was run: as §1
# [36] = biological target: Gal(b1-3)[Neu5Ac(b2-6)]GalNAc
# How it was run: as §1
# [37] = biological target: Gal(b1-4)Gal
# How it was run: as §1
# [38] = biological target: Gal(b1-4)GalNAc(a1-3)[Fuc(a1-2)]Gal(b1-4)GlcNAc
# How it was run: as §1
binder,measurement,setting,value
B1,glycan array binding signal (z-score),[1],-0.131
same,glycan array binding signal (z-score),[2],-0.238
same,glycan array binding signal (z-score),[3],-0.094
same,glycan array binding signal (z-score),[4],-0.256
same,glycan array binding signal (z-score),[5],-0.186
same,glycan array binding signal (z-score),[6],2.03
same,glycan array binding signal (z-score),[7],0.088
same,glycan array binding signal (z-score),[8],0.065
same,glycan array binding signal (z-score),[9],-0.247
same,glycan array binding signal (z-score),[10],-0.326
same,glycan array binding signal (z-score),[11],0.343
same,glycan array binding signal (z-score),[12],-0.232
same,glycan array binding signal (z-score),[13],-0.169
same,glycan array binding signal (z-score),[14],-0.258
same,glycan array binding signal (z-score),[15],-0.307
same,glycan array binding signal (z-score),[16],-0.096
same,glycan array binding signal (z-score),[17],0.427
same,glycan array binding signal (z-score),[18],0.126
same,glycan array binding signal (z-score),[19],-0.381
same,glycan array binding signal (z-score),[20],-0.281
same,glycan array binding signal (z-score),[21],-0.286
same,glycan array binding signal (z-score),[22],-0.233
same,glycan array binding signal (z-score),[23],-0.052
same,glycan array binding signal (z-score),[24],0.261
same,glycan array binding signal (z-score),[25],-0.203
same,glycan array binding signal (z-score),[26],-0.273
same,glycan array binding signal (z-score),[27],-0.201
same,glycan array binding signal (z-score),[28],0.115
same,glycan array binding signal (z-score),[29],-0.406
same,glycan array binding signal (z-score),[30],2.42
same,glycan array binding signal (z-score),[31],-0.251
same,glycan array binding signal (z-score),[32],1.61
same,glycan array binding signal (z-score),[33],-0.144
same,glycan array binding signal (z-score),[34],0.697
same,glycan array binding signal (z-score),[35],-0.253
same,glycan array binding signal (z-score),[36],0.915
same,glycan array binding signal (z-score),[37],-0.333
same,glycan array binding signal (z-score),[38],-0.267
